The other results are listed elsewhere or left out.
Target: no compound (DMSO)
Assay: log2 fold change of degron read counts, EGFP-low vs EGFP+ sorted cells; higher = lower degron-EGFP level without compound (poor expression or instability)
Details: compound: DMSO control; 18 h
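Also: jurkat cells carrying a lentiviral library of mutant zinc finger degrons fused to EGFP plus mCherry, mCherry+ cells FACS sorted, degron abundance counted by next-generation sequencing.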

Row | Sequence | log2 fold change of degron read counts
1 | FKCDICGACFTQKGNLLRHIKL | -1.45
2 | FKCEVCGAEFTQKGNLLRHIKL | -3.39
3 | FTCNQCGRTFTQKGNLLRHIKL | -1.03
4 | FDCNVCGAIFTQKGNLLRHIKL | 0.181
5 | FYCPICGHAFTQKGNLLRHIKL | -1.45
6 | LTCNQCGFICTQKGNLLRHIKL | 0.722
7 | FMCPICGHYFTQKGNLLRHIKL | 0.32
8 | LMCEICGFSCTQKGNLLRHIKL | 0.542
9 | FDCNQCGRSFTQKGNLLRHIKL | -0.407
10 | FCCDVCGAKFTQKGNLLRHIKL | -2.4
11 | FACNQCGRIFTQKGNLLRHIKL | -1.1
12 | FQCPVCGAYFTQKGNLLRHIKL | 0.113
13 | LECEICGFICTQKGNLLRHIKL | -0.04
14 | FACDVCGATFTQKGNLLRHIKL | -1.18
15 | FNCEVCGAKFTQKGNLLRHIKL | -1.13
16 | FGCPICGRYFTQKGNLLRHIKL | 0.233
17 | LKCPICGFMCTQKGNLLRHIKL | 0.0276
18 | FACPICGRWFTQKGNLLRHIKL | 0.893
19 | FGCDQCGASFTQKGNLLRHIKL | -1.79
20 | LNCNQCGFMCTQKGNLLRHIKL | 0.75
21 | FQCPICGHAFTQKGNLLRHIKL | -0.198
22 | FWCEQCGASFTQKGNLLRHIKL | -0.859
23 | FQCNQCGRWFTQKGNLLRHIKL | -0.958
24 | FRCPICGAEFTQKGNLLRHIKL | -0.567
25 | FLCNQCGAVFTQKGNLLRHIKL | 0.17

Row | Sequence | log2 fold change of degron read counts
26 | FNCEVCGAPFTQKGNLLRHIKL | 0.197
27 | FLCEQCGAPFTQKGNLLRHIKL | -1.01
28 | FLCPVCGAQFTQKGNLLRHIKL | -0.881
29 | LTCNQCGFKCTQKGNLLRHIKL | -0.283
30 | FSCNVCGAWFTQKGNLLRHIKL | 0.0307
31 | FTCEVCGARFTQKGNLLRHIKL | -1.6
32 | FHCPICGHDFTQKGNLLRHIKL | -0.99
33 | FYCEVCGALFTQKGNLLRHIKL | -0.526
34 | FRCEICGREFTQKGNLLRHIKL | -1.74
35 | FYCPVCGAQFTQKGNLLRHIKL | -0.00395
36 | FRCNQCGHPFTQKGNLLRHIKL | 0.6
37 | LMCNQCGFKCTQKGNLLRHIKL | 0.497
38 | FQCEQCGAWFTQKGNLLRHIKL | -1.13
39 | FSCEQCGACFTQKGNLLRHIKL | -2.64
40 | FCCPICGAHFTQKGNLLRHIKL | -0.314
41 | FQCDICGAFFTQKGNLLRHIKL | -1.16
42 | FMCPICGRTFTQKGNLLRHIKL | -0.896
43 | FHCDICGALFTQKGNLLRHIKL | -0.162
44 | LHCEICGFMCTQKGNLLRHIKL | 0.151
45 | FACDICGADFTQKGNLLRHIKL | -1.96
46 | FLCNQCGAMFTQKGNLLRHIKL | -0.0501
47 | FGCPVCGAGFTQKGNLLRHIKL | -0.0215
48 | FSCPICGHYFTQKGNLLRHIKL | 0.0826
49 | FKCNICGAAFTQKGNLLRHIKL | -1.11
50 | FTCDICGATFTQKGNLLRHIKL | -1.45
